# The supplement of paper PMC3334620
# The full ranking holds about 33,000 sequences; the median of “E-score (-0.5 to 0.5)” is about -0.032, and the highest 2% start at about 0.36. The list shows a part of the results.
# Target: T1, Sko1 (UniProt Q02100)
# T1 sequence: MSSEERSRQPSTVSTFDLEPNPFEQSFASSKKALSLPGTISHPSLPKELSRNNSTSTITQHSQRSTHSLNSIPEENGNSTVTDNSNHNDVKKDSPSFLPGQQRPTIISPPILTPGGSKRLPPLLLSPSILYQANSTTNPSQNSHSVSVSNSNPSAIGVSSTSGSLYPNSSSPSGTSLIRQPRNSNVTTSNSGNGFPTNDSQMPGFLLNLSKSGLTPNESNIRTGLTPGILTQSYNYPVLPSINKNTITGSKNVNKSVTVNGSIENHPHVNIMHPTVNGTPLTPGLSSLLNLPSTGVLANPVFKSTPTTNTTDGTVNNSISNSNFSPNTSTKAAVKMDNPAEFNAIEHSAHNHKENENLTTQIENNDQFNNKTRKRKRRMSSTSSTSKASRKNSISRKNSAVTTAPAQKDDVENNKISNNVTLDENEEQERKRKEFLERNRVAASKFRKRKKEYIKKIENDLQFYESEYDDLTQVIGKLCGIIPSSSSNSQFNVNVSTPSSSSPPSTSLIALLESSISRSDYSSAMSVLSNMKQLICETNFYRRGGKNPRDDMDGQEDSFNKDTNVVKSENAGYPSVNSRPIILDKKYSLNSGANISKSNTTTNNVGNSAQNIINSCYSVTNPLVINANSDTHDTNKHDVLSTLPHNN
# Experiment: PBM E-score (8-mer binding enrichment) (E-score (-0.5 to 0.5)); higher = stronger / more preferred TF binding; most listed sequences are background and not binding sites
# Settings: protein concentration: 200 nM; construct: GST-full length
# Procedure, shortened: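 Bound GST-tagged yeast transcription factors, applied at about 100-200 nM to double-stranded universal all-10-mer Agilent arrays, were detected with fluorescent anti-GST. Scans were normalised with masliner. A modified Wilcoxon-Mann-Whitney statistic, the E-score, was assigned to each ungapped eight-base word pooled with its reverse complement by the Universal PBM Analysis Suite.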
row,Sequence,PBM E-score
1,CACGTCGG,0.183
2,CAATCGGA,-0.124
3,GACGTATA,0.453
4,ACGTCAGT,0.469
5,CACGCCAA,0.119
6,ATAAAAGC,0.0222
7,GATGAGGC,-0.17
8,AGTGGTTC,-0.08
9,TTACCAAA,0.158
10,CACCGGTA,-0.18
11,TATTCGAA,0.0721
12,CAGCTGTA,-0.256
13,GTCAACAC,0.142
14,ACGGCTCG,-0.0111
15,CAGAAAAC,0.234
16,CTAGTCCC,-0.0899
17,AATGTACT,0.0407
18,TGACGGCA,0.275
19,CAACAGAC,0.0225
20,CACTGGTA,0.0571
21,CCATCGTC,-0.0226
22,ATCACTAG,0.0764
23,GGTACACC,-0.18
24,AATAGAAT,0.104
25,GAGTCCAA,-0.167

row,Sequence,PBM E-score
1,GTACGCAC,0.303
2,ACCGGTCA,-0.154
3,ATCGCCCG,-0.179
4,CCAGAACG,-0.00441
5,AGCAGGCT,-0.301
6,CTGACTTA,0.0668
7,ACTTCTCT,-0.0928
8,AATTGCCC,-0.0343
9,CTTACATC,0.202
10,GAGACGGA,-0.0605
11,TACCGTGA,-0.139
12,ATAGAGCG,-0.23
13,CTTGAGTC,-0.175
14,ATGGTGCA,0.0432
15,ACTGTCAA,-0.0414
16,GACGGTAC,0.171
17,ATCACATA,0.3
18,CACCATGA,0.102
19,CAGATCTA,-0.00832
20,CGCCCCTC,-0.312
21,CACGGGTC,-0.136
22,GGATTCCA,0.0845
23,GATGAGCC,-0.167
24,GGCTTCCA,-0.218
25,ATGATAAC,0.263

row,Sequence,PBM E-score
1,AGGTATGA,0.0251
2,ATGCAACG,0.153
3,ACAACGTC,0.368
4,CGCGAACA,-0.0312
5,ATGACCGC,-0.0945
6,CTTTCCGA,-0.203
7,ACTGATCA,0.108
8,AATTGCTC,-0.193
9,GCCCGAAA,0.0303
10,ATAGATTA,0.278
11,CCGCTTTA,0.0682
12,AGACGCTG,-0.213
13,GGGTGTTA,-0.0119
14,CATCGCAG,-0.143
15,GCCGTCCA,-0.16
16,CCCTAGCG,-0.396
17,GACGGAGC,-0.322
18,ACAATCAA,0.0869
19,AACGACAA,0.165
20,AAATGATG,0.373
21,AGATTATC,-0.0109
22,CACATTCG,0.088
23,AGTCCACG,0.0506
24,ATTACCGA,0.0448
25,ATCGGTGA,0.12

row,Sequence,PBM E-score
1,AGCGAAGG,-0.122
2,CCGTTATC,-0.00855
3,CTCCCTAA,-0.121
4,AATGCTCA,0.209
5,CAAGTAGG,-0.148
6,GACCTCTA,-0.154
7,AAACACGC,0.316
8,ACGTCGCG,0.356
9,GTCATAAA,0.364
10,GACGATCA,0.026
11,AACATCGC,-0.0887
12,GCTTTGGA,0.0123
13,CAACTCCA,-0.0701
14,AATTGGAT,0.0845
15,ATTAAAAT,0.217
16,CTTATTCA,0.0262
17,TAATAAGA,0.178
18,CGGGACTC,-0.189
19,ATCCCTGG,-0.227
20,CGTCGAGA,0.192
21,AATAACTA,0.186
22,GACGTGGC,0.189
23,CGGAGTAA,-0.0566
24,AGAAATAT,0.114
25,AAAACATT,0.0995

row,Sequence,PBM E-score
1,CCATTAAG,-0.0741
2,GCAATGAC,0.374
3,TCCCACAA,-0.16
4,CGGTAGTC,-0.274
5,GAAGTCTA,-0.142
6,ACCAGGCG,-0.16
7,ATGCAAGA,0.0657
8,AGGATAAT,0.0588
9,AACATCTT,0.118
10,AGCATCGA,-0.136
11,TGTGCGAA,-0.0341
12,CTGCCCGC,-0.0733
13,GCACGGGA,-0.156
14,GACCTTTA,-0.0128
15,GAAGCGTA,0.0736
16,CGGTTATA,-0.0341
17,AATCTATC,0.0137
18,AACTGGAT,-0.046
19,ACTGAGGC,-0.00682
20,AATACTCC,-0.233
21,CAGTGCCC,-0.118
22,CTTATCCC,-0.0649
23,CGTCGGGC,-0.216
24,GAACTAAC,0.00301
25,GCCTCTAA,-0.172

row,Sequence,PBM E-score
1,CGATAACC,-0.0651
2,CCTTTCCA,-0.152
3,ATCCATCA,-0.0535
4,GGTCAGAC,-0.241
5,ATTTTGTC,0.208
6,GGCGAGAC,-0.00381
7,CAGTCGAA,-0.0717
8,AAGTTATT,0.15
9,ACGCTAAA,0.0769
10,ACCTTCAT,-0.00414
11,GGCCATCA,-0.165
12,GATCTGAA,-0.139
13,CCTAGGAA,-0.0919
14,ATAAAGTG,0.11
15,CCTTTACG,0.278
16,AATGGAAT,0.137
17,CTGAAGCC,-0.255
18,GATGTCTA,0.109
19,CAGTACGC,0.194
20,CTGACTCA,-0.0405
21,ATAGTTTC,-0.0745
22,CAATGTGG,0.0109
23,ACTAGATA,0.215
24,CAGATGAC,0.37
25,AACGGCAT,0.048

row,Sequence,PBM E-score
1,ACAACAGT,-0.0679
2,ACTCAAAC,0.0881
3,CTCAGCGC,-0.103
4,GACTTACC,-0.217
5,GGGGGGTA,-0.178
6,AACAATTG,0.0266
7,GGCCCCCA,-0.32
8,CTACTAGC,-0.00047
9,ACGACCCC,-0.193
10,GATGCTGA,-0.186
11,GACGCTAC,0.181
12,ACGGAAAG,-0.0231
13,ACTAACCT,-0.0409
14,CTTACCAA,0.0713
15,CTATACCC,-0.219
16,TGTCACAA,0.133
17,CCAACACG,0.281
18,GCCTGTCC,-0.297
19,CGGACGAG,-0.152
20,AATGAATA,0.0911
21,GTACCGCA,0.116
22,TCTTCACA,0.126
